# Experimental data reported in PubChem BioAssay AID624296 (National Center for Advancing Translational Sciences (NCATS), 2012).
# Screen size: about 350,000 compounds; about 9,900 (2.8%) were called active. Inconclusive results, whose numbers are uncertain, are shown with a selection of clear calls. Calls come from the whole dose curve; as a rule, active = well fitted activation curve with a large enough effect; inconclusive = small, poorly fitted or top-dose-only effect; inactive = no such curve, though single readings can be large or run the other way. Potencies of inconclusive entries are left out as doubtful fits.
# Experiment: A quantitative high throughput screen for small molecules that induce DNA re-replication in MCF 10a normal breast cells. For activity, positive = re-replication: % of control where 0% means no effect. Note: nearly all actives have a fitted effect of over 50% in size.
# Details: MCF 10A DNA re-replication, Hoechst nuclear intensity, 48 h; activity, positive = re-replication: at 46.1 µM (top of the series)
# Potency is the fitted concentration of half-maximal effect; tags give direction and shape of the fitted curve.
SMILES,Potency,"activity, positive = re-replication"
CC(C)Cn1cnc2c(SCc3ccccc3F)nc(N)nc21,"inconclusive [activator, partial curve]",–
Cc1cc(C)n(-c2nc(Nc3ccccc3C(F)(F)F)nc(-n3nc(C)cc3C)n2)n1,"inconclusive [activator, single point]",–
COc1cc(C(=O)OCC(=O)NCCCc2ccccc2)ccc1OCC(C)C,–,inactive: 10.2%
Fc1cccc(-c2n[nH]c(=S)n2-c2ccccc2)c1,–,inactive: 3.15%
COc1cccc(-c2sc3ccc(OC)cc3c2-c2ccc(OCCN(C)C)cc2)c1,"inconclusive [activator, partial curve, poor fit]",–
C=CC[C@]12C=C(OC)C(=O)C(OC)=C1O[C@@H](c1ccc3c(c1)OCO3)[C@H]2C,–,inactive: 1.15%
Cc1ccc(S(=O)(=O)Oc2cccc(/C=N/Nc3ccc(C(=O)O)cc3)c2)cc1,"inconclusive [activator, partial curve, poor fit]",–
O=C(CN1C(=O)CCC1=O)Nc1nc(-c2ccc(Oc3ccccc3)cc2)cs1,"inconclusive [activator, partial curve, poor fit]",–
COc1ccc(NC(=S)NCCN2CCC(C)CC2)cc1Cl,"inconclusive [activator, single point]",–
Cc1cccc(NS(=O)(=O)c2ccc(C)c(C(=O)NNC(=O)c3csc(N4CCOCC4)n3)c2)c1,"inconclusive [activator, partial curve, poor fit]",–
CN(C)S(=O)(=O)c1ccc(C(=O)OCC(=O)c2ccc(OC(F)F)cc2OC(F)F)cc1,"inconclusive [activator, single point]",–
CCN(C(=O)Nc1ccccc1)c1ccccc1,"inconclusive [activator, full curve]",–
CCN(c1ccccc1)S(=O)(=O)c1ccc(Cl)c(NC(=O)COC(=O)c2cccc(OC)c2O)c1,–,inactive: -28%
COc1ccc(-c2nc3n(c(=O)c2C#N)CCCS3)cc1,"inconclusive [activator, partial curve, poor fit]",–
COc1cccc(-c2csc(NC(=O)Oc3ccccc3)n2)c1,"inconclusive [activator, single point]",–
CCN(CC)C(=O)COc1coc(CN2CCN(c3ccccc3)CC2)cc1=O,–,inactive: 7.88%
Cc1cc(C)c(S(=O)(=O)N2CCCCC2CCNC(=O)C(=O)NCC2CCCO2)c(C)c1 (stereo unspecified),–,inactive: 6.17%
CCC(=O)Nc1nc(-c2ccc3c(c2)CC(C)N3S(C)(=O)=O)cs1 (stereo unspecified),–,inactive: -9.48%
Cc1ccc(Cl)cc1NS(=O)(=O)c1c(C)[nH]c(=O)[nH]c1=O,–,inactive: 0.888%
CCOC(=O)[C@@H]1CSCCS(=O)(=O)N1,"inconclusive [activator, full curve, poor fit]",–
Nc1ncnc2c1ncn2[C@@H]1O[C@H](CNCc2ccccc2OCc2ccc(Cl)cc2Cl)[C@@H](O)[C@H]1O,–,inactive: 6.47%
CCOC(=O)C1=CN(Cc2ccc(Br)cc2)S(=O)(=O)NC1C (stereo unspecified),–,inactive: -1.7%
CCCCOc1ccc(-c2cn3ccccc3n2)cc1[N+](=O)[O-],active: 11.6 µM,–

SMILES,Potency,"activity, positive = re-replication"
Cc1[nH]c2ccc(C(=O)N3CCN(c4ccccc4Cl)CC3)cc2c1C,"inconclusive [activator, single point]",–
CC1CCc2c(sc(Nc3nc4c(F)cccc4s3)c2C(N)=O)C1 (stereo unspecified),active: 7.31 µM,–
COC(=O)C1CCN(C(=O)C2CCN(C(=O)[C@H](C)NS(=O)(=O)c3ccc(C)cc3)CC2)CC1,"inconclusive [activator, full curve, poor fit]",–
CC1(C)OC(=O)C(=NNc2ccccc2)C(=O)O1,"inconclusive [activator, partial curve, poor fit]",–
O=C(c1ccc2c3c(cccc13)CC2)C1CCCN(C(=O)c2cccnc2)C1 (stereo unspecified),–,inactive: 6.1%
COc1ccc(C(=O)NNC(=O)CN2CCC(n3nnc4cc(C(F)(F)F)ccc43)CC2)cc1,–,inactive: 25.4%
CCc1cccc(NC(=O)CCc2nc3sc4c(c3c(=O)[nH]2)CCCC4)c1,"inconclusive [activator, single point]",–
Cc1ccc(-c2ccc(/C=N\NC(=O)C3C(=O)NCC3c3ccccc3)o2)cc1Cl (stereo unspecified),"inconclusive [activator, single point]",–
CCC(C)(C)C1CCC2(CC1)NC(=O)N(CC(=O)N1CCN(C(=O)c3ccco3)CC1)C2=O (stereo unspecified),–,inactive: -2.94%
CCCCOc1ccc(N(CC(=O)NC2CCCCC2)C(=O)c2snc(C(N)=O)c2N)cc1,"inconclusive [activator, single point]",–
Nc1c(Cl)ncnc1N1CCCC1,–,inactive: -0.875%
CC(C)CCNC(=O)c1cc2c(s1)-c1ccccc1S(=O)(=O)C2,"inconclusive [activator, partial curve, poor fit]",–
Cc1ccc(NC2CCCN(C(=O)CSc3ccncc3)C2)cc1C (stereo unspecified),–,inactive: 4.03%
CC(=O)Nc1ccc(S(=O)(=O)NCCc2ccccn2)cc1,–,inactive: -5.2%
Cc1onc(-c2ccccc2)c1C(=O)Nc1nnc(-c2ccncc2)s1,–,inactive: 0.484%
COc1ccc(S(=O)(=O)N2CCN(c3cccc(C)c3C)CC2)cc1,–,inactive: 14%
COc1ccc(C(C(=O)NC2CCCCC2)N(Cc2ccco2)C(=O)c2snc(C(N)=O)c2N)cc1 (stereo unspecified),"inconclusive [activator, single point]",–
Cc1cc(C)c(S(=O)(=O)N2CCN=C2c2ccccc2)c(C)c1,"inconclusive [activator, partial curve, poor fit]",–
CNCCCCOc1ccccc1-c1ccccc1,–,inactive: 24.6%
S=C(NCc1ccc(Cl)cc1)NC12CC3CC(CC(C3)C1)C2,"inconclusive [activator, single point]",–
COc1ccc(CN2CCC3CC2c2cc(-c4cccc(C)c4)ccc23)cc1 (stereo unspecified),active: 9.2 µM,–
CCCCCCNc1cc(C)oc(=O)c1C(C)=O,"inconclusive [activator, partial curve, poor fit]",–
CCc1c(C2(O)CCCCC2)[nH]c2ccc(C(F)(F)F)cc12,"inconclusive [activator, single point]",–
